Experimental data as given in publication PMC12820563, “FoxP3 forms a head-to-head dimer in vivo and stabilizes its multimerization on adjacent microsatellites”.
This is one part of the list.

Target: T1, MBP-FoxP1dN (Mus musculus, UniProt P58462 326-579)
T1 sequence: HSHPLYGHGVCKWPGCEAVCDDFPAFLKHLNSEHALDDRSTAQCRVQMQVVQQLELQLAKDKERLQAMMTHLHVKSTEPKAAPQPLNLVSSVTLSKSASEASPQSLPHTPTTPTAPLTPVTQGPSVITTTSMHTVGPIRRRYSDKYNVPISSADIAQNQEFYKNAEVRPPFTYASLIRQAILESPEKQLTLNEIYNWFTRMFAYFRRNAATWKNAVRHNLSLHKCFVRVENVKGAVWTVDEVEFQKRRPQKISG
Assay: PD-seq (MBP pull-down with sequencing); 20 mM Tris-HCl pH 7.5, 100 mM NaCl, 1.5 mM MgCl2, 0.4 uM protein, 0.1 uM dsDNA library, 30 min, room temperature, amylose pull-down; high values mean tight binding
Conditions: protein: recombinant; tags: His6-MBP; chain copies: 2; dsDNA, one strand shown
Method in brief: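 Mouse FoxP3 or FoxP1 fragment lacking the N-terminus, His6-MBP-tagged and expressed in E. coli, was incubated at 0.4 µM with 0.1 µM Klenow-filled degenerate double-stranded DNA library for 30 min at room temperature in Tris pH 7.5 buffer with NaCl and MgCl2. Complexes captured on amylose resin were washed three times and their DNA sequenced on Illumina. Binding is reads-per-million enrichment of pull-down over input, replicates pooled.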

Point of comparison: “GATGATTGTTCTCCCAGCTGATGAATTAACACGTTCGAGTAAACAAATTTTCCTAATCTTTCTGTTCAAGCGCCATCTAC”, binding signal 1.05 RPM ratio (pull-down/input). Against it:
- GATGATTGTTCTCCCAGCTGATGAATTTCCCCTTTCGAGTAAACAAATTTTCCTAATCTTTCTGTTCAAGCGCCATCTAC — lower, 0.804 RPM ratio (pull-down/input)
- GATGATTGTTCTCCCAGCTGATGAATTTAACGCCTCGAGTAAACAAATTTTCCTAATCTTTCTGTTCAAGCGCCATCTAC — lower, 0.91 RPM ratio (pull-down/input)
- GATGATTGTTCTCCCAGCTGATGAATTTGAAACATCGAGTAAACAAATTTTCCTAATCTTTCTGTTCAAGCGCCATCTAC — higher, 1.06 RPM ratio (pull-down/input)
- GATGATTGTTCTCCCAGCTGATGAATTCACTAGTTCGAGTAAACAAATTTTCCTAATCTTTCTGTTCAAGCGCCATCTAC — lower, 0.902 RPM ratio (pull-down/input)
- GATGATTGTTCTCCCAGCTGATGAATTTCGCAGATCGAGTAAACAAATTTTCCTAATCTTTCTGTTCAAGCGCCATCTAC — lower, 0.774 RPM ratio (pull-down/input)
- GATGATTGTTCTCCCAGCTGATGAATTATTCTGATCGAGTAAACAAATTTTCCTAATCTTTCTGTTCAAGCGCCATCTAC — lower, 0.97 RPM ratio (pull-down/input)
- GATGATTGTTCTCCCAGCTGATGAATTTTAAGGGTCGAGTAAACAAATTTTCCTAATCTTTCTGTTCAAGCGCCATCTAC — lower, 0.826 RPM ratio (pull-down/input)
- GATGATTGTTCTCCCAGCTGATGAATTATATTGGTCGAGTAAACAAATTTTCCTAATCTTTCTGTTCAAGCGCCATCTAC — higher, 1.46 RPM ratio (pull-down/input)
- GATGATTGTTCTCCCAGCTGATGAATTTCTACGTTCGAGTAAACAAATTTTCCTAATCTTTCTGTTCAAGCGCCATCTAC — lower, 0.876 RPM ratio (pull-down/input)
- GATGATTGTTCTCCCAGCTGATGAATTTGAGAAGTCGAGTAAACAAATTTTCCTAATCTTTCTGTTCAAGCGCCATCTAC — lower, 0.824 RPM ratio (pull-down/input)
- GATGATTGTTCTCCCAGCTGATGAATTTGGACCATCGAGTAAACAAATTTTCCTAATCTTTCTGTTCAAGCGCCATCTAC — lower, 0.935 RPM ratio (pull-down/input)
- GATGATTGTTCTCCCAGCTGATGAATTGTAGAGTTCGAGTAAACAAATTTTCCTAATCTTTCTGTTCAAGCGCCATCTAC — lower, 0.9 RPM ratio (pull-down/input)
- GATGATTGTTCTCCCAGCTGATGAATTCATAAGATCGAGTAAACAAATTTTCCTAATCTTTCTGTTCAAGCGCCATCTAC — lower, 0.914 RPM ratio (pull-down/input)
- GATGATTGTTCTCCCAGCTGATGAATTCACAGTATCGAGTAAACAAATTTTCCTAATCTTTCTGTTCAAGCGCCATCTAC — lower, 0.978 RPM ratio (pull-down/input)
- GATGATTGTTCTCCCAGCTGATGAATTATCCCACTCGAGTAAACAAATTTTCCTAATCTTTCTGTTCAAGCGCCATCTAC — lower, 0.896 RPM ratio (pull-down/input)
- GATGATTGTTCTCCCAGCTGATGAATTTAGCGTATCGAGTAAACAAATTTTCCTAATCTTTCTGTTCAAGCGCCATCTAC — lower, 1.01 RPM ratio (pull-down/input)
- GATGATTGTTCTCCCAGCTGATGAATTGAGCAGTTCGAGTAAACAAATTTTCCTAATCTTTCTGTTCAAGCGCCATCTAC — lower, 0.868 RPM ratio (pull-down/input)
- GATGATTGTTCTCCCAGCTGATGAATTTAGCAGGTCGAGTAAACAAATTTTCCTAATCTTTCTGTTCAAGCGCCATCTAC — lower, 0.868 RPM ratio (pull-down/input)
- GATGATTGTTCTCCCAGCTGATGAATTTGCCCTATCGAGTAAACAAATTTTCCTAATCTTTCTGTTCAAGCGCCATCTAC — lower, 0.862 RPM ratio (pull-down/input)
- GATGATTGTTCTCCCAGCTGATGAATTTTCGATGTCGAGTAAACAAATTTTCCTAATCTTTCTGTTCAAGCGCCATCTAC — lower, 0.913 RPM ratio (pull-down/input)
- GATGATTGTTCTCCCAGCTGATGAATTTGCCCCCTCGAGTAAACAAATTTTCCTAATCTTTCTGTTCAAGCGCCATCTAC — lower, 0.853 RPM ratio (pull-down/input)
- GATGATTGTTCTCCCAGCTGATGAATTTGTGCTGTCGAGTAAACAAATTTTCCTAATCTTTCTGTTCAAGCGCCATCTAC — higher, 1.31 RPM ratio (pull-down/input)
- GATGATTGTTCTCCCAGCTGATGAATTCCAGGCGTCGAGTAAACAAATTTTCCTAATCTTTCTGTTCAAGCGCCATCTAC — lower, 0.804 RPM ratio (pull-down/input)
- GATGATTGTTCTCCCAGCTGATGAATTGTCGGGTTCGAGTAAACAAATTTTCCTAATCTTTCTGTTCAAGCGCCATCTAC — lower, 0.911 RPM ratio (pull-down/input)
- GATGATTGTTCTCCCAGCTGATGAATTCGTATTCTCGAGTAAACAAATTTTCCTAATCTTTCTGTTCAAGCGCCATCTAC — lower, 0.861 RPM ratio (pull-down/input)
- GATGATTGTTCTCCCAGCTGATGAATTCTTGTAATCGAGTAAACAAATTTTCCTAATCTTTCTGTTCAAGCGCCATCTAC — higher, 1.41 RPM ratio (pull-down/input)
- GATGATTGTTCTCCCAGCTGATGAATTAGGAGAGTCGAGTAAACAAATTTTCCTAATCTTTCTGTTCAAGCGCCATCTAC — lower, 0.855 RPM ratio (pull-down/input)
- GATGATTGTTCTCCCAGCTGATGAATTTTCCCACTCGAGTAAACAAATTTTCCTAATCTTTCTGTTCAAGCGCCATCTAC — lower, 0.886 RPM ratio (pull-down/input)
- GATGATTGTTCTCCCAGCTGATGAATTACATTATTCGAGTAAACAAATTTTCCTAATCTTTCTGTTCAAGCGCCATCTAC — higher, 1.48 RPM ratio (pull-down/input)
- GATGATTGTTCTCCCAGCTGATGAATTAATTCTATCGAGTAAACAAATTTTCCTAATCTTTCTGTTCAAGCGCCATCTAC — lower, 0.992 RPM ratio (pull-down/input)
- GATGATTGTTCTCCCAGCTGATGAATTTATCTCGTCGAGTAAACAAATTTTCCTAATCTTTCTGTTCAAGCGCCATCTAC — higher, 1.12 RPM ratio (pull-down/input)
- GATGATTGTTCTCCCAGCTGATGAATTCTGGAGGTCGAGTAAACAAATTTTCCTAATCTTTCTGTTCAAGCGCCATCTAC — lower, 0.729 RPM ratio (pull-down/input)
- GATGATTGTTCTCCCAGCTGATGAATTTGAGGCATCGAGTAAACAAATTTTCCTAATCTTTCTGTTCAAGCGCCATCTAC — lower, 0.995 RPM ratio (pull-down/input)
- GATGATTGTTCTCCCAGCTGATGAATTCAGTTGATCGAGTAAACAAATTTTCCTAATCTTTCTGTTCAAGCGCCATCTAC — higher, 1.13 RPM ratio (pull-down/input)
- GATGATTGTTCTCCCAGCTGATGAATTTTCACACTCGAGTAAACAAATTTTCCTAATCTTTCTGTTCAAGCGCCATCTAC — lower, 0.883 RPM ratio (pull-down/input)
- GATGATTGTTCTCCCAGCTGATGAATTTCGCTAGTCGAGTAAACAAATTTTCCTAATCTTTCTGTTCAAGCGCCATCTAC — lower, 0.836 RPM ratio (pull-down/input)
- GATGATTGTTCTCCCAGCTGATGAATTGACTGTATCGAGTAAACAAATTTTCCTAATCTTTCTGTTCAAGCGCCATCTAC — higher, 1.16 RPM ratio (pull-down/input)
- GATGATTGTTCTCCCAGCTGATGAATTAAGAACATCGAGTAAACAAATTTTCCTAATCTTTCTGTTCAAGCGCCATCTAC — higher, 1.14 RPM ratio (pull-down/input)
- GATGATTGTTCTCCCAGCTGATGAATTACGATAGTCGAGTAAACAAATTTTCCTAATCTTTCTGTTCAAGCGCCATCTAC — lower, 1.01 RPM ratio (pull-down/input)
- GATGATTGTTCTCCCAGCTGATGAATTTCGTCTATCGAGTAAACAAATTTTCCTAATCTTTCTGTTCAAGCGCCATCTAC — lower, 0.927 RPM ratio (pull-down/input)
- GATGATTGTTCTCCCAGCTGATGAATTGGGACGCTCGAGTAAACAAATTTTCCTAATCTTTCTGTTCAAGCGCCATCTAC — lower, 0.882 RPM ratio (pull-down/input)
- GATGATTGTTCTCCCAGCTGATGAATTCCTATTGTCGAGTAAACAAATTTTCCTAATCTTTCTGTTCAAGCGCCATCTAC — higher, 2.02 RPM ratio (pull-down/input)
- GATGATTGTTCTCCCAGCTGATGAATTAAGTTTTTCGAGTAAACAAATTTTCCTAATCTTTCTGTTCAAGCGCCATCTAC — lower, 1 RPM ratio (pull-down/input)
- GATGATTGTTCTCCCAGCTGATGAATTGGTAGGTTCGAGTAAACAAATTTTCCTAATCTTTCTGTTCAAGCGCCATCTAC — lower, 0.963 RPM ratio (pull-down/input)
- GATGATTGTTCTCCCAGCTGATGAATTTTTACCATCGAGTAAACAAATTTTCCTAATCTTTCTGTTCAAGCGCCATCTAC — lower, 1.01 RPM ratio (pull-down/input)
- GATGATTGTTCTCCCAGCTGATGAATTAAGTAGTTCGAGTAAACAAATTTTCCTAATCTTTCTGTTCAAGCGCCATCTAC — lower, 0.858 RPM ratio (pull-down/input)
- GATGATTGTTCTCCCAGCTGATGAATTGCGATCCTCGAGTAAACAAATTTTCCTAATCTTTCTGTTCAAGCGCCATCTAC — lower, 0.949 RPM ratio (pull-down/input)
- GATGATTGTTCTCCCAGCTGATGAATTACACCATTCGAGTAAACAAATTTTCCTAATCTTTCTGTTCAAGCGCCATCTAC — higher, 1.27 RPM ratio (pull-down/input)
- GATGATTGTTCTCCCAGCTGATGAATTATTTGGGTCGAGTAAACAAATTTTCCTAATCTTTCTGTTCAAGCGCCATCTAC — higher, 1.29 RPM ratio (pull-down/input)
- GATGATTGTTCTCCCAGCTGATGAATTTCTCGTTTCGAGTAAACAAATTTTCCTAATCTTTCTGTTCAAGCGCCATCTAC — lower, 0.859 RPM ratio (pull-down/input)
- GATGATTGTTCTCCCAGCTGATGAATTACTAGGCTCGAGTAAACAAATTTTCCTAATCTTTCTGTTCAAGCGCCATCTAC — lower, 0.914 RPM ratio (pull-down/input)
- GATGATTGTTCTCCCAGCTGATGAATTGTGCGACTCGAGTAAACAAATTTTCCTAATCTTTCTGTTCAAGCGCCATCTAC — lower, 0.994 RPM ratio (pull-down/input)
- GATGATTGTTCTCCCAGCTGATGAATTTTCTTAATCGAGTAAACAAATTTTCCTAATCTTTCTGTTCAAGCGCCATCTAC — lower, 1.01 RPM ratio (pull-down/input)
- GATGATTGTTCTCCCAGCTGATGAATTGAGAACATCGAGTAAACAAATTTTCCTAATCTTTCTGTTCAAGCGCCATCTAC — higher, 1.07 RPM ratio (pull-down/input)
- GATGATTGTTCTCCCAGCTGATGAATTAGCGCGCTCGAGTAAACAAATTTTCCTAATCTTTCTGTTCAAGCGCCATCTAC — lower, 0.859 RPM ratio (pull-down/input)
- GATGATTGTTCTCCCAGCTGATGAATTAACGTCTTCGAGTAAACAAATTTTCCTAATCTTTCTGTTCAAGCGCCATCTAC — lower, 0.901 RPM ratio (pull-down/input)
- GATGATTGTTCTCCCAGCTGATGAATTTTGGCTATCGAGTAAACAAATTTTCCTAATCTTTCTGTTCAAGCGCCATCTAC — lower, 0.908 RPM ratio (pull-down/input)
- GATGATTGTTCTCCCAGCTGATGAATTCGTCCGTTCGAGTAAACAAATTTTCCTAATCTTTCTGTTCAAGCGCCATCTAC — lower, 0.846 RPM ratio (pull-down/input)
- GATGATTGTTCTCCCAGCTGATGAATTTGCAAGCTCGAGTAAACAAATTTTCCTAATCTTTCTGTTCAAGCGCCATCTAC — lower, 0.929 RPM ratio (pull-down/input)
- GATGATTGTTCTCCCAGCTGATGAATTTAGGCACTCGAGTAAACAAATTTTCCTAATCTTTCTGTTCAAGCGCCATCTAC — lower, 0.916 RPM ratio (pull-down/input)
- GATGATTGTTCTCCCAGCTGATGAATTTATCTGATCGAGTAAACAAATTTTCCTAATCTTTCTGTTCAAGCGCCATCTAC — higher, 1.07 RPM ratio (pull-down/input)
- GATGATTGTTCTCCCAGCTGATGAATTCATTATTTCGAGTAAACAAATTTTCCTAATCTTTCTGTTCAAGCGCCATCTAC — lower, 1.04 RPM ratio (pull-down/input)
